The text below walks through data of PubChem BioAssay AID1346428 (National Center for Advancing Translational Sciences (NCATS), 2018).

Several values for one entry are separate records, joined by “and”; a condition that tells them apart may be missing. Equal values may be shown once. Among all 48,000 compounds or so, about 1,200 (2.5%) were called active. Inconclusive results (about 2%) are left out.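 The calls were made as follows: active = activation of at least 60% and not above a set upper limit (about 1 call in 100 departs from these limits); inconclusive = activation of 40% to 60%, or above that upper limit; inactive = activation under 40%.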 The list shows a part of the results.

For the experiment, the target named is Probable G-protein coupled receptor 32 (Homo sapiens) (UniProt O75388). Briefly: qHTS for Agonists of Human Resolvin D1 Receptor DRV1. Also: 0% is about no effect. To be noted: CHO-K1 GPR32 beta-arrestin PathHunter luminescence, 90 min; at 76.9 µM; hits give high values; zero percent set by DMSO-only wells. In short, it runs like this: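 Cells are plated overnight, treated with compounds in DMSO for 90 minutes at 37 °C, and developed with PathHunter detection reagent for 1 hour before luminescence is read; signal reflects beta-arrestin binding to GPR32 in engineered CHO-K1 cells.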
Sequence of UniProt O75388 (O75388 whole entry, looked up): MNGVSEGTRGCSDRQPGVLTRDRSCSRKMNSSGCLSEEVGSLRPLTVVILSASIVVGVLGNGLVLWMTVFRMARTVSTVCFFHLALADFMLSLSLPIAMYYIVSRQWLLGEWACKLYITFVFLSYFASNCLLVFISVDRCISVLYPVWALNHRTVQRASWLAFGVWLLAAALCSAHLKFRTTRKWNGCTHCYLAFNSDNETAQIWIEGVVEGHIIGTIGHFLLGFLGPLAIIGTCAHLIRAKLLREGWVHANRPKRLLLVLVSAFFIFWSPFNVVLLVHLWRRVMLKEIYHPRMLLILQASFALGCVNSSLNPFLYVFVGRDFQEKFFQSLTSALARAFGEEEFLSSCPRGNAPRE
A general note: qHTS replaces the single test concentration by a dilution series.
Consider `CCCNC(=O)c1cnc2sc(N3CCCCCC3)nn2c1=O`, for which the activation was inactive: 1.29%.

In the case of `CCc1nn(CC(=O)NCc2ccc(OC)c(OC)c2)c(=O)c2cc3sc(C)cc3n12`, the activation is inactive: -3.62%.

`Cc1ccccc1C(=O)OCc1cc(=O)n2c(C)csc2n1`: the activation is active: 75.1%. The result for `CCOc1ccc(C(=O)Nc2ccccc2OCc2cc(=O)n3ccccc3n2)cc1` reads inactive: -6.76%; that for `Cc1cc(C(=O)Nc2cccc(F)c2)c2c(C)nn(-c3cccc(Cl)c3C)c2n1`, inactive: -3.28%. The same measure for `COc1ccccc1OCCCCn1c(-c2ccc(Cl)cc2)nc2ccccc2c1=O`: inactive: -11.4%. The same measure for `CN(C)c1ccc(C(=O)Nc2cccc(-c3nc4cccnc4s3)c2)cc1`: inactive: -15.8%; for `COc1ccc(CCNC(=O)c2nc(SCc3ccc(C)cc3)ncc2Cl)cc1OC`: inactive: -21.5%. `CCOC(=O)N1CCC(=C2c3ccc(Cl)cc3CCc3cccnc32)CC1`: the activation was inactive: 6.05% and inactive: -26.6%. The result for `CCOC(=O)Cn1c(=O)n(-c2ccccc2OC)c2nc(-c3ccccc3F)nc(C(N)=O)c21` reads inactive: -43%. The same measure for `O=C(Nc1ccc(C(F)(F)F)cc1)C1CCN(c2cnccn2)CC1`: inactive: -35.1%; for `Cc1ccc(CCNC(=O)c2cc(C)nc3c2c(C)nn3-c2ccc(C)cc2)cc1`: inactive: -6.04%.

For `COc1cccc2cc(-c3csc(-c4ccc(Cl)cc4)n3)c(=O)oc12`, the activation was inactive: 3.79%.

As to `COc1cccc(Cn2c(SCC(=O)N(C)c3ccccc3)nc3ccccc32)c1`, the activation is inactive: 9.84%. As for `COC(=O)c1ccc(Cn2c(SCc3ccccc3)nc3ccncc32)cc1`, the activation was inactive: -14.6%. The same measure for `Cc1ccc(-c2nc(CS(=O)(=O)CC(=O)NCc3ccc(Cl)cc3)c(C)o2)cc1`: inactive: -1.77%; for `CCc1ccc(-n2c(SCc3ccccc3C)nc3[nH]ncc3c2=O)cc1`: inactive: -33.1%. `CCc1c(C)c2ccc(O)c(CN3CCN(c4ccc(OC)cc4)CC3)c2oc1=O`: the activation is inactive: -7.92%. On to `Cc1ccccc1CNC(=O)c1ccc(CSc2nc3cccnc3n2Cc2ccccc2)cc1`, for which the activation was inactive: -1.73%.

As to `CCOc1ccccc1NC(=O)Cn1c(=O)n(-c2ccc(F)cc2)c(=O)c2c3c(sc21)CN(C(C)=O)CC3`, the activation was inactive: -4.92%. Consider `Cc1ccc(CCNC(=O)c2ccc(CNS(=O)(=O)c3ccccc3)cc2)cc1`, for which the activation was inactive: 45.2%.

For the compound `O=C(CN1CCSc2ccccc21)N1CCCCC1`, the activation is inactive: -32.6%. Turning to `CCc1ccc(-c2nn(CC(=O)NCc3ccccc3)c3c2cnc2ccc(C)cc23)cc1`, the activation was inactive: -8.44%. Take `CC(C)c1ccc(NC(=O)CCS(=O)(=O)c2cccc3nonc23)cc1`: the activation was inactive: -3.03%.

With `CCCN(C(=O)COc1cc(=O)n(CC)c2ccccc12)c1ccc(C(C)C)cc1`, the activation was inactive: -5.94%. Take `CCc1ccc(-n2nc(C)c3c(C(=O)Nc4cc(C)c(Cl)cc4OC)cc(C)nc32)cc1`: the activation was inactive: 11.7%. The result for `Cc1ccc(NC(=O)Cn2c(=O)n(CCc3ccccc3)c(=O)c3c4c(sc32)CCCC4)c(C)c1` reads inactive: -8.76%; that for `COc1cc(/C=C(\C#N)C(=O)Nc2ccc(C)cc2)ccc1OCc1cc(=O)n2nc(C)sc2n1`, inactive: -3.43%; that for `CCc1cccc(NS(=O)(=O)c2c(C)nc3sc(CC)nn3c2=O)c1`, inactive: 19.5%. The same measure for `COc1ccc(N2CC(NC(=O)c3cc4ccccc4o3)CC2=O)cc1OC` (centres undefined): inactive: 46.8%; for `COC(=O)c1ccc(NC(=O)c2cc(=O)c3ccc(C)cc3o2)cc1`: inactive: -3.82%. The same measure for `Cc1ccc(N2CC(NC(=O)c3ccc(S(=O)(=O)N4CCCCC4)cc3)CC2=O)cc1` (centres undefined): inactive: -7.57%. As for `CCOC(=O)c1cc(NC(=O)c2ccc(C)cc2)c(=O)n2c1oc1ccc(Cl)cc12`, the activation is inactive: -5.09%. The result for `O=c1oc2ccc(Br)cc2cc1-c1csc(-c2ccccc2)n1` reads inactive: -3.76%; that for `CN(C(=O)C1=CC(c2ccc3c(c2)OCO3)=NS(=O)(=O)N1C)c1ccccc1`, inactive: -12.4%. As to `O=C(CSc1nc2c(c(=O)[nH]1)CN(Cc1ccc3c(c1)OCO3)CC2)Nc1cccc(Cl)c1`, the activation is inactive: 4.91%. With `CCCC(=O)Nc1nnc2n1CCS2`, the activation is inactive: -9.2%. The result for `Cc1nc2c(c(C)nn2-c2ccccc2)c(C)c1CCC(=O)NCCc1ccccc1` reads inactive: -6.52%; that for `Cn1nnc2c(NCc3ccccc3Cl)ncnc21`, inactive: -10.8%. The same measure for `CCOc1ccc(Oc2nc(NC)nc(N3CCOCC3)n2)nn1`: inactive: -4.89%.

For `CCOC(=O)c1noc2ncnc(N3CCC(C)CC3)c12`, the activation is inactive: 0.499%. The same measure for `COc1ccc(CC(=O)NCc2nc3cccnc3n2Cc2ccc(C)cc2)cc1OC`: inactive: -8.17%; for `Cc1cccc(Cn2cc3c(=O)n(CC(=O)Nc4ccc(C)c(F)c4)nc-3c3cc(F)ccc32)c1`: inactive: 11.4%; for `CCN(CC)C(=O)c1sc2c(c1C)c(=O)n(Cc1ccccc1)c(=O)n2Cc1ccc(Cl)cc1`: inactive: -10.6%. The result for `O=C(CCS(=O)(=O)c1nc(-c2ccc3c(c2)OCO3)cc(C(F)(F)F)n1)Nc1ccccc1F` reads inactive: -37.4%; that for `COc1ccc(Nc2nc3ccccc3c3nnc(C)n23)cc1Cl`, inactive: 1.61%; that for `CCN(C(=O)CCn1cnc2onc(-c3ccc(F)cc3)c2c1=O)c1ccc(OC)cc1`, inactive: 2.74%.

For the compound `CCc1cccc(-n2nnc(-c3nc(-c4ccccc4Cl)no3)c2N)c1`, the activation was inactive: 11.2%. For the compound `Cc1cccc(N2CCN(C(=O)c3cnn(-c4cccc(Cl)c4C)c3C3CCNCC3)CC2)c1C`, the activation is inactive: -31.4%. The same measure for `CN1Cc2cc(C(=O)N3CCC(C4CCNCC4)CC3)ccc2NC(CC(=O)O)C1=O` (centres undefined): inactive: -7.31%. As for `Cc1ccc(NC(=O)CSc2cn(CC(=O)N3CCCCCC3)c3ccccc23)cc1`, the activation is inactive: -13.5%.

As for `CCCCCCCCCCCCCCCCCCOCC(O)CO` (centres undefined), the activation was inactive: 10.6%. The same measure for `Cn1nnc2c(NCCc3ccccc3)ncnc21`: inactive: -6.27%. On to `Cc1cc(C)c(NC(=O)Cn2c(=O)n(Cc3ccco3)c(=O)c3ccc(C(=O)NC4CCCC4)cc32)c(C)c1`, for which the activation was inactive: -6.12%. Turning to `O=C(NCC(c1cccnc1)N1CCc2ccccc2C1)C(=O)Nc1ccc(Cl)cc1` (centres undefined), the activation was inactive: -16.5%. The result for `Cc1ccc(-c2noc(CSc3nnc(Cc4ccccc4)n3-c3cccc(C)c3)n2)cc1` reads inactive: 3.99%; that for `Cc1ccc2c(c1)N(CC(=O)NCc1ccccc1Br)C(=O)c1cccnc1O2`, inactive: -15.9%; that for `CC(C)c1ccc(NC(=O)c2cccc3c2C(=O)N(C2CCCCC2)C3)cc1`, inactive: -14.5%. As to `CCCc1nc2ccccc2n2c(-c3ccc(C)cc3)c3c(=O)n(C)c(=O)n(C)c3c12`, the activation was inactive: -39.4%. The result for `C[N+]1(C)CCC(OC(=O)C(O)(c2ccccc2)C2CCCC2)C1` (centres undefined) reads inactive: -6%. On to `C[N+](C)(CCOc1ccccc1)Cc1cccs1`, for which the activation is inactive: -0.706%. Regarding `COc1ccccc1NC(=O)c1c(NC(=O)c2ccco2)sc2c1CCC(C(C)(C)C)C2` (centres undefined), the activation is inactive: 4.85%. Take `CCSc1ncc(Cl)c(C(=O)Nc2c(C(=O)c3ccc(C)c(F)c3)oc3ccccc23)n1`: the activation was inactive: 3.7%.

With `CCOCCCNC(=O)C(c1ccc(C)cc1)N(Cc1cccs1)C(=O)c1ccc(NC(C)=O)cc1` (centres undefined), the activation is inactive: -3.1%.

`CC(=O)c1cccc(NC(=O)c2c(N3CCCC3=O)c3cc(F)ccc3n2C)c1`: the activation was inactive: -11.6%.

`Cc1nc2nc(SCC(=O)NCc3ccccc3Cl)nn2c(C)c1Cc1ccccc1`: the activation was inactive: -5.8%.

As to `CCc1ccc(NC(=O)C(CC)n2c(=O)c(C(F)(F)F)nc3ccccc32)cc1` (centres undefined), the activation is inactive: -6.72%. In the case of `COc1cc(Cl)c(C)cc1Nc1ncnc2c1nc1n2CCCC1`, the activation is inactive: -11.3%.

With `CCOC(=O)Cn1c(=O)c2c(nc3n2CCN3c2ccc(CC)cc2)n(C)c1=O`, the activation is inactive: -12.1%. As for `CCc1nc(-c2cc(S(=O)(=O)N3CCN(c4ccccc4OC)CC3)ccc2OC)no1`, the activation was inactive: -14.8%. The result for `COc1ccc(-c2cc(C(=O)Nc3c(C)nn(Cc4ccc(C)cc4)c3C)no2)cc1OC` reads inactive: -6.02%; that for `Cc1ccc(-c2nnc(Nc3ccc(O)cc3)c3ccccc23)cc1S(=O)(=O)N1CCOCC1`, inactive: -14.5%; that for `COc1ccc(Cl)cc1NC(=O)CN1C(=O)COc2ccc(S(=O)(=O)NC3CCCC3)cc21`, inactive: -1.61%. `COc1cccc(NS(=O)(=O)c2ccc(-c3cc(C)no3)s2)c1`: the activation was inactive: -3.73%. As for `Cc1ccc(Nc2nn3c(=O)c4cc5c(cc4nc3s2)OCO5)cc1Cl`, the activation was inactive: 2.22%. On to `CCOC(=O)c1cc(-c2ccccc2)n(-c2cccc(C(=O)Nc3ccc(OCC)cc3)c2)c1C`, for which the activation is inactive: -22.9%. As to `COc1cccc(Cn2c(=O)n(Cc3ccco3)c(=O)c3oc4ccccc4c32)c1`, the activation is inactive: -1.83%. With `CC(=O)N1CCCc2cc(S(=O)(=O)N3CCC(C(=O)NCc4cccc(C)c4)CC3)ccc21`, the activation was inactive: -4.96%. Take `CN(C(=O)CSc1cn(CC(=O)N2CCOCC2)c2ccccc12)c1ccccc1`: the activation was inactive: 1.12%. Regarding `CCCCN(CC)CCNC(=O)Cn1cc2c(n1)-c1c(oc(C(=O)N3CCCC3)c1C)CC2`, the activation is inactive: -3.01%. The same measure for `CCCOc1cccc(C(=O)N(Cc2ccc(C)o2)C2CCS(=O)(=O)C2)c1` (centres undefined): inactive: -14%; for `COc1cc(NC(=O)CC2C(=O)N(c3cccc(C)c3)C(=O)N2Cc2ccc(F)cc2)cc(OC)c1` (centres undefined): inactive: -22.9%; for `CCOC(=O)c1cc2c(=O)n3ccccc3nc2n(CC(C)C)c1=NC(=O)c1c(-c2c(F)cccc2Cl)noc1C`: inactive: -5.39%. The same measure for `CCCN(C(=O)c1noc2c1COc1ccc(C)cc1-2)c1ccc(Cl)c(Cl)c1`: inactive: -0.371%.
